# Data published in PubChem BioAssay AID651820 (National Center for Advancing Translational Sciences (NCATS), 2012).
# Screen size: about 340,000 compounds; about 12,000 (3.5%) were called active. This list was built around the results that the source calls inconclusive (neither active nor inactive); the mix of calls is not that of the screen. Calls follow the shape of the dose curve; as a rule, active = well fitted inhibition curve with a large enough effect; inconclusive = small, poorly fitted or top-dose-only effect, or another doubt; inactive = no such curve, though single readings can be large or run the other way. No potency is given beside an inconclusive call; the fits are too rough.
# Assay: qHTS Assay for Inhibitors of Hepatitis C Virus (HCV)
# Details: Huh7.5.1 HCVcc-Cre (HCVcc is cell-culture hepatitis C virus) infection, luciferase reporter, 44 h; activity change, negative = inhibition: at 41.8 µM (top of the series) unless noted
# Summary of the method: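 A cell-based infection assay in which seeded cells (1,000 per well) receive test compound after 4 h, are inoculated with HCVcc-Cre at approximately 0.5 moi, and are incubated 44 h before luminescence detection.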
# % is scaled to controls: 0 for no effect and ±100 for the full control effect; potency is read from the fitted curve at half-maximal effect; tags tell the direction and shape of the fitted curve.
SMILES,Potency,"activity change, negative = inhibition"
CC(=O)c1ccc(N2CCN(C(=O)Nc3cccc(F)c3)CC2)cc1,"inconclusive [inhibitor, single point]",–
COc1ccc(CC(=O)Nc2cccc(-c3nnc(-c4ccccc4)o3)c2)cc1OC,active: 6.31 µM,–
COC(=O)C1=C(C)NC2=C(C(=O)c3ccccc32)C1c1cccc(OC)c1 (configuration not stated),"inconclusive [inhibitor, partial curve]",–
Cc1cccc(-c2nsc(SCC(=O)NCC3CCCO3)n2)c1 (configuration not stated),"inconclusive [inhibitor, single point]",–
O=C(Nc1ccc(O)cc1)c1cc2n(n1)C(C(F)(F)F)CC(c1ccco1)N2 (configuration not stated),"inconclusive [inhibitor, partial curve]",–
Cc1csc(-c2coc3cc(O)cc(C)c3c2=O)n1,"inconclusive [inhibitor, single point]",–
CC(=O)c1cn(CC(=O)Nc2ccccc2)c2ccccc12,"inconclusive [inhibitor, partial curve]",–
CCOc1ccc(NC(=O)N2CCCC2C(=O)NCC2CCCO2)cc1 (configuration not stated),–,inactive: 8.3%
O=C(Nc1nc(-c2ccco2)c(-c2ccco2)s1)c1c(F)cccc1Cl,active: 14.1 µM,–
COC1=C(Nc2ccc(C)cc2)C(=O)c2ccccc2C1=O,"inconclusive [inhibitor, single point]",–
COc1ccc(CSc2nc3ccccc3[nH]2)cc1,"inconclusive [inhibitor, single point]",–
O=C(C[n+]1cc(-c2ccc(F)cc2)n2c1CCC2)Nc1nc(-c2ccc(F)cc2)cs1,"inconclusive [inhibitor, partial curve]",–
O=C(CCS(=O)(=O)c1ccccc1)N1CCN(c2cccc(C(F)(F)F)c2)CC1,"inconclusive [inhibitor, single point]",–
Cc1ccc2nc(NC(=O)c3cccs3)sc2c1,–,inactive: -2.67%
COc1cccc(NC(=O)C(=O)NCC2CCCN2S(=O)(=O)c2ccccc2)c1 (configuration not stated),active: 11.2 µM,–
CC(C)(C)OC(=O)C[C@@H]1C/C=C\C[C@H](CC(=O)N[C@@H](CO)Cc2ccccc2)C(=O)N[C@H](Cc2ccccc2)COC1=O,–,inactive: -11.5%
CN1CCC(N(C)C(=O)COc2ccccc2-c2ccccc2)CC1,"inconclusive [inhibitor, single point]",–
CCCCCCSc1ccc([C@@H]2[C@@H]3C(=O)N(CC)C(=O)[C@@H]3[C@]3(C(=O)OC)CCCCN23)cc1OC,–,inactive: 5.98%
Cc1[nH]n(-c2ccccc2)c(=O)c1C=Nc1cnc2ccccc2c1,"inconclusive [inhibitor, single point]",–
COc1cc(C(=O)NNC(=O)c2cc(-c3ccccc3)n[nH]2)cc(OC)c1C,"inconclusive [inhibitor, single point]",–
Cc1ccc(NC(=S)NC(NC(=O)c2ccccc2)C(Cl)(Cl)Cl)c(C)c1 (configuration not stated),"inconclusive [inhibitor, partial curve]",–

SMILES,Potency,"activity change, negative = inhibition"
Cc1onc(-c2c(Cl)cccc2Cl)c1C(=O)ONC(=O)c1cc(C(F)(F)F)cc(C(F)(F)F)c1,–,inactive: -8.31%
CCn1c(=O)c2cc(C(=O)NCCC(C)C)sc2c2ccccc21,–,inactive: -8.6%
O=c1cc(-c2ccc(O)cc2)oc2ccc(O)cc12,active: 31.6 µM,–
CC(C)N(Cc1ccccc1)C(=O)C1CCCN(c2ncnc3c2nc2n3CCCCC2)C1 (configuration not stated),"inconclusive [inhibitor, single point]",–
O=C(/C=C/c1ccc(S(=O)(=O)N2CCOCC2)cc1)NCc1ccccc1Cl,"inconclusive [inhibitor, partial curve]",–
COc1ccc(C2CC(=O)c3cnc(N4CCN(Cc5ccccc5)CC4)nc3C2)cc1 (configuration not stated),"inconclusive [inhibitor, single point]",–
Cc1ccc(-c2nn(-c3ccccc3)cc2C2SCC(=O)N2Cc2ccccc2)o1 (configuration not stated),"inconclusive [inhibitor, single point]",–
COC(=O)c1c(NC(=O)CC2SC(N)=NC2=O)sc2c1CCC(C)C2 (configuration not stated),"inconclusive [inhibitor, partial curve]",–
CCOC(=O)C(C(=O)NCC1CCCO1)C1CCCCC1 (configuration not stated),"inconclusive [inhibitor, single point]",–
Brc1ccccc1Cn1c(-c2cscn2)nc2ccccc21,"inconclusive [inhibitor, partial curve, poor fit]",–
Cc1cc(Cl)ccc1OCC(=O)Nc1ccncc1,active: 12.6 µM,–
O=C(c1cccc(Cl)c1)C1CCCN(S(=O)(=O)c2ccccc2)C1 (configuration not stated),"inconclusive [inhibitor, single point]",–
O=C(C(=O)N(Cc1ccccc1)Cc1ccccc1)c1c(-c2ccccc2)[nH]c2ccccc12,"inconclusive [inhibitor, partial curve]",–
COc1ccc(N2C(=NC(=O)C3CCCCC3)SC3CS(=O)(=O)CC32)cc1OC (configuration not stated),–,inactive: 2.94%
O=C(c1ccccc1)C(O)c1ccccc1 (configuration not stated),"inconclusive [inhibitor, single point]",–
CCN(CC)S(=O)(=O)c1ccc(N2CCOCC2)c(NC(=O)c2cc(-c3ccccn3)nc3ccccc23)c1,"inconclusive [inhibitor, single point]",–
COc1ccccc1NC(=O)/C(C#N)=C/C=C/c1ccco1,"inconclusive [inhibitor, partial curve]",–
Cc1c(=O)n(OCc2ccc(Cl)cc2)c2ccccc2[n+]1[O-],"inconclusive [inhibitor, single point]",–
CC(C)(C)c1nc2ccccc2c2nnc(SCC(=O)Nc3nccs3)n12,"inconclusive [inhibitor, partial curve]",–
COc1ccc(OC)c(NC(=O)CC2SC(=Nc3ccc(F)cc3)N(CCC3=CCCCC3)C2=O)c1 (configuration not stated),"inconclusive [inhibitor, partial curve]",–
CCOC(=O)N1CCN(S(=O)(=O)c2ccc(F)c(C(=O)Nc3ccc(C)c(Cl)c3)c2)CC1,"inconclusive [inhibitor, single point]",–
